{
  "source": "PubChem BioAssay AID488969",
  "about": "(Vanderbilt High Throughput Screening Facility, 2010)",
  "note": "Over roughly 110,000 compounds, “z-score” has its median near -0.1; the highest 2% begin near 2. The list shows a part of the results. Activity calls are given as the source filed them.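 How the source made its calls: active means z-score in the third read window above 3 or below -3; inactive means the rest.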",
  "data": [
    {"target": "Metabotropic glutamate receptor 8 (Rattus norvegicus) (UniProt P70579)", "sequence (P70579 whole entry, looked up)": "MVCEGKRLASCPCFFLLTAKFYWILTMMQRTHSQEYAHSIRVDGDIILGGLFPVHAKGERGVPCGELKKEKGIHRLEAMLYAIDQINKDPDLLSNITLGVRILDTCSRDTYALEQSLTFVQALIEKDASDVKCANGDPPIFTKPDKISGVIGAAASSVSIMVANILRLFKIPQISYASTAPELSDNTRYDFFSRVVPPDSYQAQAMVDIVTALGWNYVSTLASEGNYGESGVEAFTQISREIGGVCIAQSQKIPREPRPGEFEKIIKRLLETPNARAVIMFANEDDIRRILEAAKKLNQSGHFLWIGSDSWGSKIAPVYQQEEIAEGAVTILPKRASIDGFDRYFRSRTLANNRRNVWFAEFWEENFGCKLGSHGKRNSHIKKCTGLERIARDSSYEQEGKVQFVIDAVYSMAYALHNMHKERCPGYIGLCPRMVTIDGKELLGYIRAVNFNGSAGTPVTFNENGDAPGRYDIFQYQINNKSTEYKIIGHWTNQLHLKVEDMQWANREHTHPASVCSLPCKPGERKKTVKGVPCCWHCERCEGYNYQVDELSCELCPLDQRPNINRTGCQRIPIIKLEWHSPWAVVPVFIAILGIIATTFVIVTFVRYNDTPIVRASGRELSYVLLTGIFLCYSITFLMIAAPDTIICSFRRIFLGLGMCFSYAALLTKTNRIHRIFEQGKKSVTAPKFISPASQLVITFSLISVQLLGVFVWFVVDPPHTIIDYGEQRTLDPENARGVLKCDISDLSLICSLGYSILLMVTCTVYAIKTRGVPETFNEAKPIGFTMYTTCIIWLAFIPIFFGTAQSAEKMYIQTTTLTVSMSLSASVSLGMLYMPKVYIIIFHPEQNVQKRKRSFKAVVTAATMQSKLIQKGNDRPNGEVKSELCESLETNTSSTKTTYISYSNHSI", "test": "rat mGluR8 modulators via GIRK flux, primary screen, cell-based, thallium flux, HTS (AID 488969)", "conditions": "HEK293 rat mGluR8, GIRK (G protein-gated inwardly rectifying potassium channel) thallium flux, FluoZin2; at 10 µM; stronger effect = higher value; submaximal glutamate (EC20) added with thallium", "values": [
      {"smiles": "CCCCOC(=O)c1ccc(NC(=S)NC(=O)c2c(Br)c(C)nn2C)cc1", "z-score": "active: 4.24"},
      {"smiles": "Cc1nn(-c2ccccc2)c(N2CCCC2)c1/C=N/Nc1ccc(S(N)(=O)=O)cc1[N+](=O)[O-]", "z-score": -0.414},
      {"smiles": "Cc1ccc(C(=O)Oc2coc(CSc3nnc(NC(=O)c4cccs4)s3)cc2=O)cc1", "z-score": -0.193},
      {"smiles": "CCOC(=O)N1CCN(C(=O)CCCn2nc(C)c3sc4ccccc4c3c2=O)CC1", "z-score": -0.492},
      {"smiles": "O=C(c1ccc(S(=O)(=O)N2CCOCC2)cc1)N1CCc2ccccc2C1", "z-score": 0.0377},
      {"smiles": "COc1ccc(C(=O)NCCn2cc(SCC(=O)N3CCOCC3)c3ccccc32)cc1", "z-score": 0.0395},
      {"smiles": "Cc1ccc(S(=O)(=O)N[C@H](C(=O)N2CCC(C(=O)N3CCC[C@H]3C(=O)O)CC2)C(C)C)cc1", "z-score": 0.715},
      {"smiles": "Cc1cc(NC(=O)CSc2nnc(-c3c[nH]c4ccccc34)n2-c2ccc(Cl)cc2)no1", "z-score": -0.301},
      {"smiles": "CCOc1ccc(S(=O)(=O)N(C)CCO)cc1-c1nc2c(C(C)(C)C)nn(C)c2c(=O)[nH]1", "z-score": -1.09},
      {"smiles": "O=C(Cn1cc(C(F)(F)F)ccc1=O)N/N=C/c1cccc(Cl)c1Cl", "z-score": -0.181},
      {"smiles": "Cn1c(=O)c2c(nc(CN3CCN(C(=O)c4ccco4)CC3)n2Cc2ccccc2F)n(C)c1=O", "z-score": -0.521},
      {"smiles": "COc1ccc(NC2=Nc3cccc4cccc2c34)cc1OC", "z-score": "active: 4.9"},
      {"smiles": "CC(=O)Nc1nc(C)c(Oc2ccccc2)c(=O)[nH]1", "z-score": 0.0607},
      {"smiles": "O=C(CSc1nc2scc(-c3ccco3)c2c(=O)n1-c1ccccc1)N1CCOCC1", "z-score": 0.42},
      {"smiles": "Nc1nc(N2CCN(C/C=C/c3ccccc3)CC2)nc2ccccc12", "z-score": 0.356},
      {"smiles": "CCCCCOC(=O)CSc1n[nH]c(=O)[nH]c1=O", "z-score": -0.193},
      {"smiles": "Cc1ccc(Sc2c(C)nn(C(=O)C3CC3)c2C)cc1", "z-score": -0.366},
      {"smiles": "CCCCOc1ccc(S(=O)(=O)NCc2csc(C)n2)cc1", "z-score": -1.17},
      {"smiles": "O=C(NNC(=O)C1CCCO1)c1ccc(F)cc1", "note": "(stereo not drawn)", "z-score": -0.154},
      {"smiles": "Cc1ccc(C)c(Nc2ncnc3nc[nH]c23)c1", "z-score": -0.224},
      {"smiles": "COc1cc2c(cc1OC)C(C(=O)NCc1ccco1)C1c3ccccc3CCN1C2=O", "note": "(stereo not drawn)", "z-score": 0.0658},
      {"smiles": "CC1CCC2C(=O)N(c3ccc(NC4CCCCC4)c([N+](=O)[O-])c3)C(=O)C2C1", "note": "(stereo not drawn)", "z-score": 0.115},
      {"smiles": "CCC(=O)NCCc1nc2ccccc2[nH]1", "z-score": -0.565},
      {"smiles": "CC(=O)Nc1cccc(C(=O)/C=C/c2ccc(C)cc2)c1", "z-score": 0.501},
      {"smiles": "Cc1ccc(C=Nc2ccccc2C(N)=O)s1", "z-score": -0.296},
      {"smiles": "O=C(Nc1nccs1)c1cc(-c2ccccc2)nn1-c1ccccc1", "z-score": 1.18},
      {"smiles": "CSCCC(NC(=O)c1ccc(Cl)cc1)C(=O)OCC(=O)Nc1cc(Cl)ccc1C#N", "note": "(stereo not drawn)", "z-score": -0.119},
      {"smiles": "Cc1cccc(N2C(N)=C(C#N)C(C#N)(C#N)C2c2ccccc2)c1", "note": "(stereo not drawn)", "z-score": -0.101},
      {"smiles": "Cc1cc(NC(=O)CCCC(=O)O)nc(C)n1", "z-score": -0.119},
      {"smiles": "COC(C(=O)Nc1ccc(S(=O)(=O)Nc2ccc(C)c(C)c2)cc1)c1ccccc1", "note": "(stereo not drawn)", "z-score": -0.117},
      {"smiles": "CC(=O)N1c2ccccc2C(C)(c2ccccc2)CC1(C)C", "note": "(stereo not drawn)", "z-score": -0.236},
      {"smiles": "COc1ccc(NC(=O)CC#N)cc1OC", "z-score": -0.0767},
      {"smiles": "CNC(=O)Nc1cc(C(C)(C)C)no1", "z-score": 0.117},
      {"smiles": "CCOc1ccc(-c2nnc(SCC(=O)N(CC)CC)n2N)cc1", "z-score": 0.044},
      {"smiles": "Cc1ccc(C2CC2C(=O)NN)cc1", "note": "(stereo not drawn)", "z-score": -0.033},
      {"smiles": "CC1(C(=O)O)CCC(C(=O)Nc2ccc3ccccc3c2)C1(C)C", "note": "(stereo not drawn)", "z-score": -0.174},
      {"smiles": "COc1ccccc1NC(=O)Cn1c(=O)sc2ccccc21", "z-score": -0.0843},
      {"smiles": "Cc1cc(C)c(C#N)c(Oc2ccccc2)n1", "z-score": -1.02},
      {"smiles": "COc1ccc2c(Cl)c(C(=O)NCCCn3ccnc3)sc2c1", "z-score": -0.0695},
      {"smiles": "COc1ccc(CCNC(=O)CSc2nnc(-c3ccc(F)cc3)c3ccccc23)cc1OC", "z-score": "active: -3.05"},
      {"smiles": "O=C(COC(=O)Cc1cccc(C(F)(F)F)c1)Nc1cccc2ccccc12", "z-score": 0.00711},
      {"smiles": "Cc1ccc(NC(=O)C2CC(=O)NC(Nc3cccc(C)c3)=N2)cc1", "note": "(stereo not drawn)", "z-score": 0.0251},
      {"smiles": "Cc1cc(N2CC34C=CC(O3)C(C(=O)O)C4C2=O)no1", "note": "(stereo not drawn)", "z-score": -0.0216},
      {"smiles": "O=C(O)CCCC(=O)Nc1ccc(Br)cc1C(=O)O", "z-score": 0.073},
      {"smiles": "COc1ccc(OC)c(Nc2ncnc3c2cnn3-c2ccccc2)c1", "z-score": -0.143},
      {"smiles": "Cc1ccccc1NC1=C(Cl)C(=O)N(C2CCCCC2)C1=O", "z-score": 0.129},
      {"smiles": "CCOC(=O)c1ccc(NC(=O)N2CCN(S(C)(=O)=O)CC2)cc1", "z-score": 0.139},
      {"smiles": "CCCOC(=O)NC(CC)COC(=O)Nc1cc(C)ccc1C", "note": "(stereo not drawn)", "z-score": -0.0367},
      {"smiles": "Cc1ccc(NC(=O)/C(=C/c2cccc([N+](=O)[O-])c2)NC(=O)C2CCCCC2)cc1", "z-score": -0.193},
      {"smiles": "CCOc1cc(Br)c(C(=O)O)cc1OCC", "z-score": -0.24},
      {"smiles": "Cc1[nH]c(=O)[nH]c(=O)c1NS(=O)(=O)c1ccc2c(c1)CCCC2", "z-score": -0.358},
      {"smiles": "Cc1ccc(-n2c(SCC(N)=O)nnc2-c2ccccn2)cc1C", "z-score": 0.0328},
      {"smiles": "CCCOc1ccccc1-c1nc2c([nH]1)c(=O)[nH]c(=O)n2C", "z-score": -0.0733},
      {"smiles": "CC(C)OP(=O)(OC(C)C)C(Nc1ccccn1)c1ccc(F)cc1", "note": "(stereo not drawn)", "z-score": -0.207},
      {"smiles": "c1cncc(-c2cccnc2)c1", "z-score": 0.277},
      {"smiles": "CC(C)NC(=O)Cn1cnc2c1c(=O)n(C)c(=O)n2C", "z-score": -0.161},
      {"smiles": "CC(C)=C1C2CCC1C1C(=O)N(c3nccs3)C(=O)C21", "note": "(stereo not drawn)", "z-score": -0.106},
      {"smiles": "COc1ccc(S(=O)(=O)NCCC(=O)NCc2cccs2)cc1", "z-score": -0.222},
      {"smiles": "O=C(CCS(=O)(=O)c1ccc(Br)s1)NC1CCCCCC1", "z-score": 0.681},
      {"smiles": "CSc1n[nH]c(NCc2cccs2)n1", "z-score": -0.124},
      {"smiles": "O=C(Nc1cc(S(=O)(=O)N2CCOCC2)ccc1N1CCCC1)c1cnccn1", "z-score": -0.108},
      {"smiles": "O=C(Nc1ccc2c(c1)Cc1ccccc1-2)c1ccncc1", "z-score": 0.177},
      {"smiles": "COC(=O)[C@@H](NC(=O)NCc1ccc(F)cc1)C(C)C", "z-score": -0.141},
      {"smiles": "CCCNC(=O)NC(=O)COc1c(F)c(F)cc(F)c1F", "z-score": 0.232},
      {"smiles": "Cc1cnc(NC(=O)CSc2nnc(C)n2N)s1", "z-score": -0.271},
      {"smiles": "COc1ccc(C=O)cc1CSc1nnc(COc2cccc3cccnc23)o1", "z-score": -0.687},
      {"smiles": "Oc1[nH]c2ccccc2c1/C=N/c1nccs1", "z-score": 2.09},
      {"smiles": "NC(=O)CSc1nnnn1-c1cccc(Cl)c1", "z-score": -0.301},
      {"smiles": "CCCCC(CCC(=O)Nc1ccc(C(=O)OCC)cc1)C(=O)O", "note": "(stereo not drawn)", "z-score": -0.529},
      {"smiles": "CC(C)Cc1ccc(C#N)c(SCC(N)=O)n1", "z-score": -0.397},
      {"smiles": "CCOc1ccc(CNC(=O)CCCOc2cc(=O)n(C)c3ccccc23)cc1", "z-score": 0.124},
      {"smiles": "CCOC(=O)C1CCCN(c2c(NCCN3CCCCC3CC)c(=O)c2=O)C1", "note": "(stereo not drawn)", "z-score": -0.0143},
      {"smiles": "Cc1ccc(C(=O)c2cn[nH]c2-c2ccccc2O)cc1", "z-score": -0.0541}
    ]}
  ]
}
